The full ranking holds about 110,000 compounds; the median of “z-score” is about -0.1, and the highest 2% start at about 2. This is one part of the list. Activity calls are given as the source filed them.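 How the source made its calls: active means z-score in the third read window above 3 or below -3; inactive means the rest.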

This assay concerns the target Metabotropic glutamate receptor 8 (Rattus norvegicus) (UniProt P70579). Briefly: rat mGluR8 modulators via GIRK flux, primary screen, cell-based, thallium flux, HTS (AID 488969). Particulars: HEK293 rat mGluR8, GIRK (G protein-gated inwardly rectifying potassium channel) thallium flux, FluoZin2; at 10 µM; stronger effect = higher value; submaximal glutamate (EC20) added with thallium.
UniProt P70579, sequence (P70579 whole entry, looked up): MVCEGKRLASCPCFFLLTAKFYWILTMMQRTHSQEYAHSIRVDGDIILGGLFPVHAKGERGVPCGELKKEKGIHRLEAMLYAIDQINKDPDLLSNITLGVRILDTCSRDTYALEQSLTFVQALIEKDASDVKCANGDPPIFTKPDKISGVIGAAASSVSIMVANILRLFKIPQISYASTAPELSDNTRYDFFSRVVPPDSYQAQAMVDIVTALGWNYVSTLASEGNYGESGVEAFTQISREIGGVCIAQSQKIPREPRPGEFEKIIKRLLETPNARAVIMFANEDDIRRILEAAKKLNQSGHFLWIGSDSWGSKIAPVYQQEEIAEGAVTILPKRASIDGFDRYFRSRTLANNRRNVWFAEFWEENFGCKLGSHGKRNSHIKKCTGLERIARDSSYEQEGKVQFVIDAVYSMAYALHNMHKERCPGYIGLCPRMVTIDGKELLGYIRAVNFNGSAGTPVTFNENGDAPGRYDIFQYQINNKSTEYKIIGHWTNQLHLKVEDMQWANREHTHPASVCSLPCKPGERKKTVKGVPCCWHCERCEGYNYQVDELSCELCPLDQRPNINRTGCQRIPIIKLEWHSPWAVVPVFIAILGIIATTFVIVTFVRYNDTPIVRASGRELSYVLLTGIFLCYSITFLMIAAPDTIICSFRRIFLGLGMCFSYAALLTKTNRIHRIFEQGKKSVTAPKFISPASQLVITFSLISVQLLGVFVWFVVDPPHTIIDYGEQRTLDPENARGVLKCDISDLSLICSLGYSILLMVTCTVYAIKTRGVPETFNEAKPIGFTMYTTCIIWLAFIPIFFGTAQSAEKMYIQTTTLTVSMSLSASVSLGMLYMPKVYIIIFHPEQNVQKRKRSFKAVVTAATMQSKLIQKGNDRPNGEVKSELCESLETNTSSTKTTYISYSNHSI
With `Cc1ccn2cc(CNS(=O)(=O)c3ccc(Cl)s3)nc2c1`, the z-score was -0.172.
With `COc1ccc(-c2nc(CN3CCCC(C(=O)NC4CCCC4)C3)c(C)o2)cc1` (configuration not stated), the z-score was -0.473.
Then `CCCCN1C(=O)C(=O)N(c2ccccc2)C1=S`, with -0.31; and `CCOC(=O)C1=C(CSc2nc(CC)c(C)cc2C#N)OC(N)=C(C#N)C1c1ccccc1` (configuration not stated), with -0.373; and `NC(=O)NC(c1ccccc1)c1ccccc1`, with 1.66.
In turn, `COc1cc(C(=O)NCCCNc2nc3cc(C)cc(C)c3cc2C#N)cc(OC)c1OC` registered a z-score of -0.863.
`Cc1ccc(OCCCN(C)C)c(Br)c1` registered a z-score of 1.17.
For `Cc1nc([N+](=O)[O-])c(Br)n1CC(=O)c1ccc(Br)cc1` the value was -0.183.
`Cc1c(/C=C/C(=O)c2ccccc2)cnn1C`: the z-score was -0.156.
In turn, `COc1ccccc1N1C(=O)C2C3CC(c4ccccc4)C(C3)C2C1=O` (configuration not stated) returned a z-score of -0.186.
For `Cn1c(CNC(=O)c2ccco2)nnc1SCC(=O)Nc1cccc(Br)c1` the value was -0.244.
Then `CCOC(=O)/C(=N/Nc1ccc(C)cc1)S(=O)(=O)c1ccc(Cl)cc1`, with 1.32; and `CCCCOc1cccc(-c2nnc(NC(=O)CSc3ccc(C)cc3)s2)c1`, with -0.169.
As for `COC(=O)c1cc(NC(=O)Cc2ccc(OC)c(OC)c2)cc(C(=O)OC)c1`, the z-score was -1.07.
For `COc1cccc(N(CC(=O)O)S(=O)(=O)c2ccccc2)c1` the value was -0.0181; for `CCCn1nnc(NC(=O)c2ccc(OC)cc2)n1`, -0.0151; for `COc1cc(/C=N\Nc2nc3ccccc3o2)cc(OC)c1OC`, 0.867.
Turning to `Cc1cc(C)cc(OCC(=O)N2CCCCCC2)c1`, the z-score is -0.242.
Then `CCOC(=O)N1CCN(S(=O)(=O)c2ccc(C)c(C)c2)CC1`, with 0.519; and `CN(C)C(=O)N1CCN(C(=O)N2CCOCC2)CC1`, with -0.134; and `COC(=O)Oc1ccc(/C=N/NC(=O)CSCc2ccc(Cl)cc2)cc1OC`, with -0.334.
For the compound `CCC(=O)Nc1ccc(S(=O)(=O)NCC2CCCO2)cc1` (configuration not stated), the z-score was -0.339.
For the compound `CNc1c([N+](=O)[O-])cnn1-c1ccc(Cl)cc1`, the z-score is -0.122.
For `CC12CC(NC(=O)N1Cc1ccccc1)c1ccccc1O2` (configuration not stated) the value was 0.0105; for `COC(=O)CSc1snnc1-c1ccc(F)cc1`, -1.33.
In turn, `C/C(=N\NC(=O)c1cc(-c2cccnc2)nc2ccccc12)c1ccc(O)cc1O` returned a z-score of -0.235.
For `COc1ccccc1NC(=O)c1ccc(CN(c2cc(Cl)ccc2C)S(=O)(=O)c2ccccc2)cc1` the value was -0.303; for `Cc1csc2nc(CCNS(=O)(=O)c3cccs3)cn12`, 0.325.
The compound `CCCCCCn1c(COc2ccccc2F)nnc1SCC(=O)c1c(N)n(C)c(=O)n(C)c1=O` yielded a z-score of -0.228.
With `COc1ccc(/C=C\C(=O)c2c(O)ccc3c(C)cc(=O)oc23)cc1`, the z-score is -0.279.
`CO/N=C/c1ccc(N2CCN(C(=O)c3cccc(C(F)(F)F)c3)CC2)c([N+](=O)[O-])c1` registered a z-score of -0.0941.
`O=C(COc1ccc(Br)cc1)c1ccc2c(c1)CCCC2` had a z-score of -0.191.
With `CCOc1ccc2nc(/N=C/c3c(C)[nH]n(-c4ccccc4)c3=O)sc2c1`, the z-score is active: 13.8.
Compound `COc1ccc(-n2c(N)c(C(=O)NCC3CCCO3)sc2=S)cc1` (configuration not stated) displayed a z-score of 0.0625.
For `O=C(COC(=O)c1ccco1)NCc1cccs1` the value was 0.528; for `Cc1ccc(CNC(=O)/C=C/c2ccc(Br)o2)cc1`, -0.294.
Then `c1ccc(CCn2nnnc2CN2CCc3ccccc32)cc1`, with -1.51.
Compound `CCCC(C1=C(O)CC(C)(C)CC1=O)C1C(=O)CC(C)(C)CC1=O` (configuration not stated) returned a z-score of -0.0698.
With `Clc1ccccc1CSc1snnc1-c1ccccc1`, the z-score was -0.0536.
`O=C(Cn1cnc2c(oc3ccccc32)c1=O)N1CCN(c2ccccc2)CC1` gave a z-score of 1.2.
Compound `CCOC(=O)c1[nH]c2ccccc2c1N=CN(C)C` returned a z-score of -0.24.
Then `O=C(CC(NC(=O)c1ccccc1Cl)c1ccccc1)NCCc1ccc(Cl)cc1` (configuration not stated), with -0.556.
Then `CCN1CCN(C(=S)c2ccc(OCC(=O)N3CCOCC3)cc2)CC1`, with -0.363; and `Cc1cccc(OCC(=O)NC(Cc2ccccc2)C(=O)O)c1` (configuration not stated), with -0.031.
For `Cc1nn(C)cc1CNC(=O)Nc1ccc(Cl)c(Cl)c1` the value was 2.06; for `NC(=S)Nc1cc2ccccc2c2ccccc12`, 0.0523.
Compound `COC(=O)c1ccccc1NC(=O)CN1CCOCC1` came in with a z-score of 0.0182.
Then `CCCCN(C)CCCNC(=O)CCn1nc(-c2ccccc2)ccc1=O`, with 0.0635.
Take `COc1ccc(CN(C(=O)c2cc3ccccc3oc2=O)C2CCCCC2)cc1OC`: the z-score is -1.2.
Then `Cc1ccc(S(=O)(=O)N2CCN(C(=O)CCC(=O)OCC(=O)Nc3cccc(C#N)c3)CC2)cc1`, with -0.106.
For `O=c1cc(C(F)(F)F)oc2c1ccc1ccccc12` the value was -0.211; for `O=C(O)CCS(=O)(=O)Cc1ccccc1F`, -0.777.
Compound `CN(C)C(CNC(=O)Nc1cccc(Cl)c1)c1cccnc1` (configuration not stated) displayed a z-score of 0.988.
The compound `CCOc1ccc(N(Cc2cc3ccc(C)cc3[nH]c2=O)S(C)(=O)=O)cc1` came in with a z-score of -0.166.
For `Oc1cccc(/C=N/Nc2cc(N3CCCC3)nc(N3CCCC3)n2)c1` the value was -0.0652; for `COc1ccc(-c2cc3nc4c(c(=O)n3[nH]2)CCC4)cc1`, 1.13; for `COCCNC(=O)c1c[nH]c2ccc(S(=O)(=O)N3CCC4(CC3)OCCO4)cc2c1=O`, -0.33.
For `O=C1C2C3C=CC(C3)C2C(=O)N1CCCCN1C(=O)C2C3C=CC(C3)C2C1=O` (configuration not stated) the value was -0.0856; for `COc1ccc(S(=O)(=O)NCCCCCC(=O)NCCCN2CCOCC2)cc1`, 2.89.
Then `O=C1CN(c2ccccc2Cl)C(=O)CN1c1ccccc1Cl`, with 0.348.
Consider `Cc1cc(C)nc(N2CCCC(C(=O)NCCc3ccc(F)cc3)C2)n1` (configuration not stated), for which the z-score was active: 3.52.
For `CCOc1ccc(Nc2cc(=O)n(C)c(=O)n2C)cc1` the value was -0.164; for `CCc1nnc(NC(=O)c2ccc(S(=O)(=O)N3CCCCCC3)cc2)s1`, -0.371.
Then `COc1ccc(/C=C2\SC(=S)N(CCC(=O)NC3=NCCS3)C2=O)cc1OC`, with -0.134; and `CCCCOc1ccc(/C=C/C(=O)OCC(=O)N2CC(=O)Nc3ccccc32)cc1OCC`, with -0.338; and `Cc1cc(C)n(C(=O)CNC(=O)c2cccs2)n1`, with -0.0552.
For `Clc1ccc(SCCCCN2CCOCC2)cc1`, the z-score is -0.0426.
In turn, `CCCS(=O)(=O)N1CCCC(C(=O)NC(C)c2ccc3c(c2)OCCO3)C1` (configuration not stated) yielded a z-score of -0.27.
Regarding `CCN(CC)S(=O)(=O)c1cc(C(=O)Nc2nncs2)c(Cl)cc1Cl`, the z-score was -0.233.
Then `O=C(NCc1ccco1)c1cc(-c2ccc(Cl)cc2)on1`, with -0.403.
Compound `CCOc1ccc(C(=O)OCC(=O)c2c(N)n(C)c(=O)n(C)c2=O)cc1OCC` displayed a z-score of 0.0392.
Then `CC(C)=CC(=O)Nc1nnc(C)s1`, with 0.00638.

For the origin of these results see PubChem BioAssay AID488969 (Vanderbilt High Throughput Screening Facility, 2010).
